This is an account of results in article PMC4336329 (PLoS ONE, 2015).

Hit rate of the full screen: of about 310,000 compounds, about 14,000 (4.5%) showed an effect of 50% or more. The effect is printed as a negative number. The list shows a part of the results.
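Further: peak tail current of the secondary pulse compared with the same well before compound.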

human ether-à-go-go-related gene (hERG) potassium channel, sequence (Q12809 whole entry, looked up): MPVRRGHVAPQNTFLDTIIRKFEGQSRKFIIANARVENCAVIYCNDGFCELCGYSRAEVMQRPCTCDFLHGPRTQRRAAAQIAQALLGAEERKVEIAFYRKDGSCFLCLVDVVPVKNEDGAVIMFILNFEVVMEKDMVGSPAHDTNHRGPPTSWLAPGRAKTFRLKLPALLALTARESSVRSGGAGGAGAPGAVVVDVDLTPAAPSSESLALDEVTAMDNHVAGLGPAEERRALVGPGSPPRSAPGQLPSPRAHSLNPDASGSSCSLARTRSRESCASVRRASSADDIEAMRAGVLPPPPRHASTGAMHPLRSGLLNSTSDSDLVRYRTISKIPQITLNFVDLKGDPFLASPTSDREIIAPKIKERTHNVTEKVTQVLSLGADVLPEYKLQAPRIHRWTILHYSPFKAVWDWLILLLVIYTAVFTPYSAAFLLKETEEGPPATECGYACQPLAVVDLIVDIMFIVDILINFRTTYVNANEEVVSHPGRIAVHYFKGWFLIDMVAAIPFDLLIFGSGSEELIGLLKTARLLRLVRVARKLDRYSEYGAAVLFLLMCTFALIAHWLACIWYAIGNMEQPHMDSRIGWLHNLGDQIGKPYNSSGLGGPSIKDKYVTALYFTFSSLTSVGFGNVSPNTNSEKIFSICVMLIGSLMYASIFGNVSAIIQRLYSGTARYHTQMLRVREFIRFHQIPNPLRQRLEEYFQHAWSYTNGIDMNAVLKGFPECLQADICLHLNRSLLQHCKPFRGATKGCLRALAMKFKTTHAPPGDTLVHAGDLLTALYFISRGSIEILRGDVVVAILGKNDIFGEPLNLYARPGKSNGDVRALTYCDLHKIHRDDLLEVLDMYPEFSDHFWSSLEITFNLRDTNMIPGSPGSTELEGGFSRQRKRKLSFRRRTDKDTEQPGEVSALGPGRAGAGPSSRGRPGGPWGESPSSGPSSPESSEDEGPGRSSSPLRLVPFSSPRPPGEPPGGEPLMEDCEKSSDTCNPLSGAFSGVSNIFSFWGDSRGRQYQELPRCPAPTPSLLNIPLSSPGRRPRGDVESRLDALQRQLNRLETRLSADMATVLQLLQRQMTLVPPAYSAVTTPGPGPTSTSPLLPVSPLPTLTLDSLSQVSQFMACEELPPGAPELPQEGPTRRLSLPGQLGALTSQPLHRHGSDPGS

The test concerns the target human ether-à-go-go-related gene (hERG) potassium channel (human, UniProt Q12809). Kind of test: primary screen, population patch clamp on CHO cells stably expressing hERG.
As for `COc1cc(/C=C/C(=O)NCc2nc3ccccc3[nH]2)cc(OC)c1OC`, the “hERG current change (%, negative = inhibition) at 10uM” value amounted to 15%.

With `Cc1nn(CC(N)=O)c(=O)c2ccccc12`, the “hERG current change (%, negative = inhibition) at 10uM” value is 10.6%.

With `CCOC(=O)c1ccc(OCc2c(C)noc2C)cc1`, the “hERG current change (%, negative = inhibition) at 10uM” value is -6.05%.

On to `COc1ccccc1N1CCN(c2ncnc3nc[nH]c23)CC1`, for which the “hERG current change (%, negative = inhibition) at 10uM” value is on record as -9.85%.

For `CN(CC(=O)Nc1cccc(F)c1)C(=O)/C=C/c1ccc(Br)s1`, the “hERG current change (%, negative = inhibition) at 10uM” value is given as 13.2%.

Turning to `COc1cccc(CNC(=O)C(C)n2ccc3cc(S(=O)(=O)N4CCCC4)ccc32)c1` (centres unmarked), the “hERG current change (%, negative = inhibition) at 10uM” value was found to be 0.662%.

Consider `CCCN1C(=O)C2(C(C(=O)c3ccc(C)o3)=C(O)C(=O)N2CCCN2CCOCC2)c2ccccc21` (centres unmarked), for which the “hERG current change (%, negative = inhibition) at 10uM” value amounted to 9.04%.

Regarding `O=c1[nH]c(CSc2nnc(-c3cccnc3)n2C2CCCCC2)nc2ccccc12`, the “hERG current change (%, negative = inhibition) at 10uM” value is 0.0819%.

As to `O=C1C=C(O)c2c(O)cc(O)c(O)c2C1=O`, the “hERG current change (%, negative = inhibition) at 10uM” value came out at 22.6%.

For the compound `CC1CCCCN1c1nc2nonc2nc1N1CCCCC1C` (centres unmarked), the “hERG current change (%, negative = inhibition) at 10uM” value is -15.8%.

Turning to `O=C(N/C(=C\c1ccccc1)C(=O)N1CCOCC1)c1ccccc1Br`, the “hERG current change (%, negative = inhibition) at 10uM” value is given as 17.9%.

On to `Cc1ccccc1Cn1nc(C)c(NC(=O)/C=C/c2cnn(C)c2C)c1C`, for which the “hERG current change (%, negative = inhibition) at 10uM” value was -8.45%.

As for `Cc1ccc(Sc2ncccc2O)cc1`, the “hERG current change (%, negative = inhibition) at 10uM” value is given as 5.73%.

Turning to `CCOc1ccc(N(C(C)C(=O)NN=C2CCCCCCC2)S(C)(=O)=O)cc1` (centres unmarked), the “hERG current change (%, negative = inhibition) at 10uM” value turned out to be 7.8%.

Consider `COc1ccc(C(=O)Nc2ccc3c(c2)OCCO3)cc1[N+](=O)[O-]`, for which the “hERG current change (%, negative = inhibition) at 10uM” value was 5.39%.

For the compound `CC1=C(C(=O)Nc2ccccc2)C(c2ccco2)C(C#N)=C(SCC(=O)OC(C)C)N1` (centres unmarked), the “hERG current change (%, negative = inhibition) at 10uM” value is listed as -19.7%.

As to `COC(=O)C1=C(c2ccc(OC(F)(F)F)cc2)C[C@@H]2CC[C@H]1N2C(=O)N1CCC(O)CC1`, the “hERG current change (%, negative = inhibition) at 10uM” value is on record as -36.2%.

Regarding `Cc1ccnc(NC(=O)c2ccc(S(=O)(=O)NCc3ccco3)cc2)c1`, the “hERG current change (%, negative = inhibition) at 10uM” value is on record as 10.4%.

Consider `COc1ccc(OC)c(S(=O)(=O)N2CCC(NC(=O)c3ccccc3)CC2)c1`, for which the “hERG current change (%, negative = inhibition) at 10uM” value was found to be 25.2%.

Turning to `CC1=C(/C=C/C(C)=C/C=C/C(C)=C/C(=O)Nc2ccc(O)cc2)C(C)(C)CCC1`, the “hERG current change (%, negative = inhibition) at 10uM” value came out at 17.6%.

Regarding `C=CCSC1=NNC(c2ccc(C(C)(C)C)cc2)=NN1`, the “hERG current change (%, negative = inhibition) at 10uM” value is recorded as -10.4%.

As for `COc1cc(OC)cc(C(=O)Nc2ccc3nc4n(c(=O)c3c2)CCCC4)c1`, the “hERG current change (%, negative = inhibition) at 10uM” value came out at 11.2%.

Regarding `O=C(NCCCN1CCOCC1)c1cc(-c2cccs2)on1`, the “hERG current change (%, negative = inhibition) at 10uM” value is -15.7%.

As for `Cc1cccc(/C=N/NC(=O)c2cccc(Cl)c2)n1`, the “hERG current change (%, negative = inhibition) at 10uM” value came out at 9.94%.

With `C(#Cc1ccccc1)C[N+]1(CC#Cc2ccccc2)CCCC1.[Br-]`, the “hERG current change (%, negative = inhibition) at 10uM” value is reported as -55.5%.

For `Cc1ccc(C(=O)Nc2ccc(S(=O)(=O)Nc3cnc4ccccc4n3)cc2)cc1`, the “hERG current change (%, negative = inhibition) at 10uM” value was 2.06%.

Regarding `CSCCC(NC(=O)c1ccco1)C(=O)Nc1cc(C)ccn1` (centres unmarked), the “hERG current change (%, negative = inhibition) at 10uM” value is listed as -15.5%.

In the case of `CC(=O)C1=C(O)C(=O)N(Cc2ccccc2)C1c1cccs1` (centres unmarked), the “hERG current change (%, negative = inhibition) at 10uM” value is on record as 6.75%.

For `COc1ccc(NC(=O)CN2CCCCC2)c([N+](=O)[O-])c1`, the “hERG current change (%, negative = inhibition) at 10uM” value is on record as -32.3%.

For `Cc1cc(Br)c(NC(=O)COC(=O)CSc2nnc(-c3ccc(Cl)cc3)o2)c(Br)c1`, the “hERG current change (%, negative = inhibition) at 10uM” value is on record as 1.39%.

`CCN(CC)CCCOC(=O)C1(c2ccccc2)CCCC1`: the “hERG current change (%, negative = inhibition) at 10uM” value is -25.6%.

Turning to `CN(Cc1ccccc1)C(=O)CCNS(=O)(=O)c1ccc2c(c1)oc(=O)n2C`, the “hERG current change (%, negative = inhibition) at 10uM” value is reported as -37%.

Take `COc1cc(/C=N/NC(=O)CC2(C)OCCCO2)ccc1OCc1ccc(Cl)cc1Cl`: the “hERG current change (%, negative = inhibition) at 10uM” value was -2.83%.

Take `C/C(=C\c1ccccc1)CN1CCN(C(C)C)C(CCO)C1` (centres unmarked): the “hERG current change (%, negative = inhibition) at 10uM” value is recorded as -18.7%.

Take `O=[N+]([O-])c1cc(Br)cc(/C=N/n2cnnc2)c1O`: the “hERG current change (%, negative = inhibition) at 10uM” value is 17.2%.

For the compound `CC(OC(=O)CNC(=O)c1ccc2c(c1)OCO2)C(=O)NCCC1=CCCCC1` (centres unmarked), the “hERG current change (%, negative = inhibition) at 10uM” value is listed as -2.85%.

As to `COC(=O)c1c(NC(=O)C(=O)NCC2CCCO2)sc2c1CC(C)(C)OC2` (centres unmarked), the “hERG current change (%, negative = inhibition) at 10uM” value is reported as 18.1%.

Take `O=C(Cc1cccs1)NNC(=S)NC(=O)c1ccccc1`: the “hERG current change (%, negative = inhibition) at 10uM” value came out at 8.53%.

For `O=C(/C=C/c1ccc(Br)cc1)NC(=S)N1CCOCC1`, the “hERG current change (%, negative = inhibition) at 10uM” value is reported as 12.9%.

Consider `C=CCN1C(=O)c2ccc(C(=O)OCC(=O)Nc3ccccc3OC)cc2C1=O`, for which the “hERG current change (%, negative = inhibition) at 10uM” value came to 14.8%.

With `Cc1ccc(C(=O)N2CCN(C(=O)c3ccccc3)C2c2ccc(N(C)C)cc2)cc1` (centres unmarked), the “hERG current change (%, negative = inhibition) at 10uM” value was -50.8%.

As for `CC1(C(=O)NCCc2c[nH]c3ccccc23)C=CCN1C(=O)c1ccccc1` (centres unmarked), the “hERG current change (%, negative = inhibition) at 10uM” value is listed as 3.91%.

As for `COc1ccccc1C1N=C(c2ccccc2C)NO1` (centres unmarked), the “hERG current change (%, negative = inhibition) at 10uM” value came out at 4.29%.

Regarding `CCn1cc(C2=NOC(C(=O)O)C2)c(C)n1` (centres unmarked), the “hERG current change (%, negative = inhibition) at 10uM” value was -3.4%.
